Test results reported in PubChem BioAssay AID588501 (NMMLSC, 2011).
Among all 360,000 compounds or so, about 420 (0.12%) were called active. The shares of active, inactive and inconclusive entries below differ from those in the screen. Rule as the data show it: active = inhibition above about 30%; inconclusive = no clear call, values can overlap the other calls; inactive = below that.

biological target: Lethal factor (Bacillus anthracis) (UniProt P15917); test: anthrax lethal factor cleavage blockers – biochemical, multiplex microsphere, MLPCN library, primary screen (AID 588501); settings: multiplex microsphere protease cleavage assay, LF; at 10 µM; stronger effect = higher value; also: plate controls were buffer without enzyme for full effect and enzyme alone for no effect

| SMILES | inhibition |
| --- | --- |
| O=C(COC(=O)c1cccnc1Cl)NC1CCCc2ccccc21 (stereo not drawn) | inconclusive: -0.7% |
| CCN(CC)CCN(C(=O)c1ccc2c(c1)CCCC2)c1nc2ccc(OC)cc2s1 | inactive: -3.8% |
| C[C@H](NC(=O)c1nc[nH]c1C(=O)N1CCNCC1)C(=O)OC(C)(C)C | inactive: -7.8% |
| COC(=O)c1ccccc1-n1c(CCC(=O)O)ccc1-c1ccc(F)cc1 | inactive: -3.4% |
| CCN(C(=O)c1cccc(S(=O)(=O)N2CCc3ccccc32)c1)C1CCS(=O)(=O)C1 (stereo not drawn) | inactive: -5.1% |
| COc1ccc(NC(=O)C2Cc3cc(S(=O)(=O)N4CCCCC4)ccc3N2C(C)=O)cc1Cl (stereo not drawn) | inconclusive: -3.5% |
| COc1ccc(-c2oc3ncnc(N)c3c2-c2ccccc2)cc1 | inactive: 1.2% |
| Cc1ccc(NC(=O)COC(=O)Cc2ccccc2)cc1S(=O)(=O)N1CCOCC1 | inconclusive: -3.2% |
| Cc1ccc(C(C(=O)NC(C)(C)C)N(C(=O)c2csnn2)c2ccccc2F)o1 (stereo not drawn) | inconclusive: -31.6% |
| O=C(O)c1ccc(S(=O)(=O)Nc2ccc3c(c2)OCCO3)cc1 | active: 31.2% |
| CSc1sc(C(=O)NNC(=O)c2ccc(Cl)cc2)c2c1C=CCC2 | inconclusive: -29.2% |
| CN(C)c1c([N+](=O)[O-])cc2[nH]c(=O)[nH]c2c1[N+](=O)[O-] | inconclusive: -10% |
| COc1ccc(C2C(C(=O)O)c3ccccc3C(=O)N2Cc2ccco2)cc1 (stereo not drawn) | inconclusive: 11.2% |
| CCOC(=O)C1C(=O)OC(C)(C)C1C(CC)C(=O)c1c(C)cc(C)cc1C (stereo not drawn) | inconclusive: 5.8% |
| CCc1ccc(C(=O)COC(=O)C2CCN(c3ccc(C(F)(F)F)cn3)CC2)cc1 | inconclusive: 7.7% |
| O=C(COC(=O)c1cc([N+](=O)[O-])ccc1N1CCOCC1)Nc1c(Cl)cccc1Cl | inconclusive: 6.9% |
| C=CCn1c(-c2cccc(OC)c2)nc2nc3ccccc3nc21 | inconclusive: -44.3% |
| CCN1C(=O)CC(N2CCC(Cc3ccccc3)CC2)C1=O (stereo not drawn) | inconclusive: -17.8% |
| Cc1ccc(-c2csc(NC(=O)C[n+]3cc(-c4ccccc4)n4c3CCC4)n2)cc1 | inconclusive: -10.2% |
| O=c1c2ccccc2nc(-c2ccco2)n1-c1nccs1 | inactive: -9% |
| COc1ccc(CC(=O)NNC(=O)c2cc(C)oc2C)cc1OC | inconclusive: 1.6% |
| S=C(Nc1ccc(Oc2ccccc2)cc1)N1CCOCC1 | inconclusive: -13.3% |

| SMILES | inhibition |
| --- | --- |
| COC(C(=O)Nc1ccnn1C1CCN(Cc2nccs2)CC1)c1ccccc1 (stereo not drawn) | inactive: 1.8% |
| O=C(N/N=C/C(Cl)=C\c1ccccc1)c1cccs1 | inconclusive: -15.4% |
| CCOC(=O)c1oc2ccccc2c1NC(=O)c1ccc(S(=O)(=O)N(C)C)cc1 | inactive: -6.9% |
| Cc1ccc(NC(=O)CN(C)C(=O)c2cc(S(=O)(=O)N(C)C)ccc2N2CCCC2)cc1 | inconclusive: 10.9% |
| CN(C)c1oc(-c2ccccc2[N+](=O)[O-])nc1C#N | inconclusive: -8.5% |
| CC(C)(C)C1CCC(C(=O)Nc2ccccc2)CC1 (stereo not drawn) | inconclusive: -15.8% |
| CC(=O)Nc1ccc(S(=O)(=O)N(C)CC(=O)OC(C)C(=O)N(C)Cc2ccccc2)cc1 (stereo not drawn) | inactive: 1.8% |
| CC(Sc1nnnn1-c1ccc(O)cc1)C(=O)NC1CCCCC1C (stereo not drawn) | inconclusive: -6.8% |
| OC(c1ccc(Cl)cc1)C(CN1CCOCC1)c1ccccc1 (stereo not drawn) | active: 40.7% |
| O=C1N=c2ccccc2=C1c1sc(=S)n(NC(=O)c2ccccc2)c1O | inconclusive: -1.2% |
| COc1ccc(S(=O)(=O)N2CCC3(CC2)OCCN3S(=O)(=O)c2ccc(C)cc2)cc1OC | inconclusive: 6.6% |
| CCOC(=O)C1=C(COC(=O)COc2ccc(C(C)=O)cc2)NC(=O)NC1C (stereo not drawn) | inconclusive: -7.1% |
| CCN(CC(=O)Nc1c(F)cccc1F)C(=O)CCc1nc2cc(S(=O)(=O)N3CCOCC3)ccc2n1C | inactive: 0.7% |
| C=CCOc1ccc(/C=C/C(=O)OCC(=O)NCC2CCCO2)cc1 (stereo not drawn) | inconclusive: 2.7% |
| O=C(CSCC(=O)N1CCCCC1)OCC(=O)c1c[nH]c2ccccc12 | active: 47.3% |
| Nc1cc(N)nc(SCC(=O)Nc2ccc3c(c2)OCO3)n1 | inactive: -1.5% |
| O=C(Oc1c(-c2ccccc2)c(=O)n2c3c(cccc13)CC2)c1ccc(F)cc1 | active: 36.9% |
| COc1ccc(NC(=O)C(C)N2C(=O)c3ccccc3S2(=O)=O)c(OC)c1 (stereo not drawn) | inconclusive: -2.1% |
| O=C(NCCOc1ccc(F)cc1)C1CCC(=O)N(Cc2ccc(Cl)cc2)C1 (stereo not drawn) | inactive: -6.1% |
| O=C(NC(Cc1ccccc1)C(=O)O)c1ccc(S(=O)(=O)N2CCOCC2)cc1 (stereo not drawn) | inactive: -1% |
| Cc1ccc(NC(=O)c2cccs2)cc1NC(=O)c1ccco1 | inconclusive: -9.3% |
| CCn1c(C(=O)O)c(CC(=O)Nc2ccc(Br)cc2C)c2ccccc21 | inactive: -6.9% |

| SMILES | inhibition |
| --- | --- |
| CCOC(=O)c1ccc(NS(=O)(=O)c2c(C)n[nH]c2C)cc1 | inconclusive: -2.8% |
| Cc1nc2ncnn2c(C)c1CCC(=O)N1CCN(c2ccccn2)CC1 | inconclusive: -10.1% |
| CN(C)c1ccc(C=c2c3ccccc3n3c2c2ccccc2[n+]3C)cc1 | inconclusive: -73.8% |
| Cc1cccc(OCC(=O)Nc2cc(S(=O)(=O)N3CCOCC3)ccc2N2CCCC2)c1C | inconclusive: -4.2% |
| NCCCCCC(=O)N/N=C/c1ccc2nccnc2c1 | active: 43.2% |
| Cc1cccn2c(=O)nc(SCC(=O)Nc3cccc4ccccc34)nc12 | inconclusive: -5.7% |
| O=C(CCSc1nnc2scc(-c3ccccc3)n12)Nc1nc(-c2ccccc2)ns1 | inconclusive: -18.9% |
| COc1ccccc1NC(=O)CN1CCN(c2ccccc2F)CC1 | inactive: -2.2% |
| Cn1nc(C(C)(C)C)cc1C(=O)N1CCC(C)(C(=O)NS(=O)(=O)C2CC2)C1 (stereo not drawn) | inactive: -11.4% |
| O=C(COC(=O)c1cc(S(=O)(=O)N2CCCCC2)ccc1N1CCOCC1)c1ccc(Cl)cc1 | inconclusive: -2.2% |
| CCC(C)C(NC(=O)c1ccccc1NC(=O)c1ccco1)C(=O)O (stereo not drawn) | inconclusive: -10.8% |
| Cc1nnc(SCCn2c(N3CCN(Cc4ccccc4)CC3)nc3c2c(=O)[nH]c(=O)n3C)s1 | inconclusive: 35% |
| OC1CN=C2CCCc3c2n(c2ccc(Cl)cc32)C1 (stereo not drawn) | active: 41.7% |
| COc1ccc(S(=O)(=O)N2CCN(CC(=O)NCCc3cccs3)CC2)cc1 | inconclusive: -0.6% |
| CC1=NNC(=O)C1CC(=O)N/N=C/C(Br)=C/c1ccccc1 (stereo not drawn) | inconclusive: -14.3% |
| O=C(NCC1CCCO1)c1ccccc1 (stereo not drawn) | inactive: -0.6% |
| NNC(=O)c1[nH]c(-c2ccccc2)cc1-c1ccccc1 | inactive: 7.3% |
| COc1ccc(-c2nn(-c3ccccc3)cc2/C=C2/SC(=S)N(Cc3ccco3)C2=O)c(C)c1 | active: 35.8% |
| Cn1cnc([N+](=O)[O-])c1Sc1nc2ccccc2[nH]1 | active: 33.8% |
| COc1ccc(C(=O)NCCS(=O)(=O)NCc2ccc(F)cc2)cc1 | inconclusive: -9% |
| CCc1ccc(/C=N\n2cnnc2)cc1 | inconclusive: 7% |
| COc1cc(C)c(Cl)c(C)c1S(=O)(=O)NC1CC(C)(C)NC(C)(C)C1 | inactive: -3.4% |

| SMILES | inhibition |
| --- | --- |
| COc1ccc(-c2csc(N(CCc3ccccc3)C(=O)COc3ccccc3)n2)cc1 | inconclusive: -12.2% |
| C=CCn1c(C)cc(C(=O)COC(=O)/C=C/c2c(C)nn(C3CCS(=O)(=O)C3)c2Cl)c1C (stereo not drawn) | inconclusive: 3.6% |
| CCOC(=O)c1cccc(NC(=O)CN2CCN(c3ccc(OC)cc3)CC2)c1 | inconclusive: -23.5% |
| COc1ccc2nc(C)cc(Nc3ccc(C(=O)O)cc3)c2c1 | inactive: -2.7% |
| Cc1onc(-c2ccccc2)c1-c1nc2cc(Cl)ccc2c(=O)o1 | inconclusive: -6.7% |
| CC(=O)Oc1ccc(-c2nc3ccccc3c(=O)o2)cc1 | inactive: -3% |
| CC(=O)Nc1ccc(-c2ccnc3c2CC(C)(C(=O)NCCN(C)C)O3)cc1 (stereo not drawn) | inactive: -6% |
| CCOC(=O)c1c(CN2CCOCC2)n(-c2ccccc2)c2cc(Br)c(O)cc12 | inconclusive: -16.2% |
| CC(C)C[C@H](N)c1nnc(SCc2ccc(Cl)cc2)o1 | inactive: 4.4% |
| Cc1ccc(-n2nc3c(c2NC(=O)c2ccco2)CS(=O)C3)c(C)c1 (stereo not drawn) | inconclusive: -0.6% |
| Cc1ccc(NC(=O)Cc2nnc(SCC(=O)NC3CCCC3)n2C)cc1C | inactive: 3.3% |
| CS(=O)(=O)N(CC(=O)Nc1ccc(S(=O)(=O)N2CCOCC2)cc1)c1ccccc1Br | inactive: 3.2% |
| CC(=O)N1CCN(S(=O)(=O)c2ccc(C)cc2)C1C (stereo not drawn) | inconclusive: -7.9% |
| COCCN1C(=O)/C(=C/c2ccc(N3CCCC3)cc2C)SC1=S | active: 57.6% |
| COC(=O)c1[nH]c2ccccc2c1NC(=O)c1ccccc1F | inconclusive: 5% |
| COc1cc(C(=O)NCC(=O)N2CCN(S(=O)(=O)c3ccccc3)CC2)cc(OC)c1OC | inconclusive: 1.9% |
| O=C(O)C1Nc2c(C(F)(F)F)ccc(Cl)c2C2C=CCC12 (stereo not drawn) | active: 40.4% |
| COc1ccc(-c2cc(C(=O)Nc3ccc(F)cc3F)no2)cc1 | active: 32.3% |
| COc1ccc(-c2nnc3sc(-c4ccco4)nn23)cc1OC | inactive: -6.1% |
| Cc1ccc(S(=O)(=O)Nc2cccc(C(=O)NCCCN3CCCC3=O)c2)cc1F | inconclusive: -1.2% |
| O=S(=O)(Cc1ccccc1)Oc1ccccc1 | inactive: 8.2% |
| CCOC(=O)C1=C(c2ccccc2)N=c2sc(=Cc3cc(OC)c(OC)c(OC)c3)c(=O)n2C1c1cccs1 (stereo not drawn) | active: 36.7% |
